Experimental data published in article PMC10439943, “SCF^RMF mediates degradation of the meiosis-specific recombinase DMC1” (Nature Communications, 2023).
These are yes or no findings as the source states them, for the method shown. For some assays here: In cells and extracts the contact can be indirect. Some entries that bind do so weakly or less than the wild type. Tags and fused reporters may be left off the sequences shown.

The chains behind the UniProt entries cited, without tags or fusion partners.
UniProt Q39255: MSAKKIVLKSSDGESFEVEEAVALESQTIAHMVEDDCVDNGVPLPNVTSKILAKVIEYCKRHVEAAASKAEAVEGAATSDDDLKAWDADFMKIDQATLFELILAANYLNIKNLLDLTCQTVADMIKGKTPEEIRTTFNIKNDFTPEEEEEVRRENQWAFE

Key:
[1] = target: T1, RMF1 BiFC fusion used with ASK1 (Arabidopsis thaliana) (UniProt Q9M365); test: split reporter; BiFC with nYFP and cYFP fusions in agro-infiltrated tobacco leaves, confocal microscopy after 36-48 h
T1 sequence: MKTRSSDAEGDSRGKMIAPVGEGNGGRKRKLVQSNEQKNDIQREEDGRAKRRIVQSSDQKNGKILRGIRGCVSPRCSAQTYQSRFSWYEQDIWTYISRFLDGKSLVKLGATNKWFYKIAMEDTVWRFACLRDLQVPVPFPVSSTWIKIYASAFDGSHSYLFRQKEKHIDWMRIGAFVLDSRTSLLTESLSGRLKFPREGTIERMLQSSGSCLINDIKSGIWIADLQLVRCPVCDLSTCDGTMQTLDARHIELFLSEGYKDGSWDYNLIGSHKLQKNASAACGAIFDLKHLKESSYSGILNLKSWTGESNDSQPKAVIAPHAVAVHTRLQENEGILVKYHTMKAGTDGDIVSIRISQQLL

[2] = target: T2, RMF2 BiFC fusion used with ASK1 (Arabidopsis thaliana) (UniProt Q9FGB8); test: as above
T2 sequence: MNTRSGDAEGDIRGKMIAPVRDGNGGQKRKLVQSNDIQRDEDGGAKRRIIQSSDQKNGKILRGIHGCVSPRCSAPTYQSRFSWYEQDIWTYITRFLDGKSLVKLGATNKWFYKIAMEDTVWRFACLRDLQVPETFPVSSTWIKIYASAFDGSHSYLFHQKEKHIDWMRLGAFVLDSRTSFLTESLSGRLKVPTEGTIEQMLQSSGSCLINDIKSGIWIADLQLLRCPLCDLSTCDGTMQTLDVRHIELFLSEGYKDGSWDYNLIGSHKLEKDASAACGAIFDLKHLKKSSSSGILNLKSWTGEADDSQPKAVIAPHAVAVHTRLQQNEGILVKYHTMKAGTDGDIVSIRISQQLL

[3] = target: T3, RMF1-FLAG (Arabidopsis thaliana) (UniProt Q9M365); test: co-IP; tobacco leaves co-infiltrated with the two tagged proteins; lysis in 50 mM Tris-HCl pH 8.0, 100 mM NaCl, 10% glycerol, 0.5% NP-40; anti-FLAG (RMF1/2-FLAG) or anti-GFP (RMF1/2-GFP) magnetic beads, 4 °C overnight; western blot
T3 sequence: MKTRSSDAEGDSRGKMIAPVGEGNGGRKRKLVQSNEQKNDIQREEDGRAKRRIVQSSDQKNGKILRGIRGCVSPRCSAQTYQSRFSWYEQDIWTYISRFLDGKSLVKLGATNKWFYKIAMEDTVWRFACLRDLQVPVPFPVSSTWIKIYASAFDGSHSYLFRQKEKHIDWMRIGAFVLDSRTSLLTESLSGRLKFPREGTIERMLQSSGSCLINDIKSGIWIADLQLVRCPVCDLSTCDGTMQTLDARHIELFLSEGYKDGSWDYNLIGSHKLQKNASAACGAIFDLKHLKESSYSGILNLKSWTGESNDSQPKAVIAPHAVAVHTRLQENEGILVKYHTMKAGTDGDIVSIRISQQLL

[4] = target: T4, RMF2-FLAG (Arabidopsis thaliana) (UniProt Q9FGB8); test: as above
T4 sequence: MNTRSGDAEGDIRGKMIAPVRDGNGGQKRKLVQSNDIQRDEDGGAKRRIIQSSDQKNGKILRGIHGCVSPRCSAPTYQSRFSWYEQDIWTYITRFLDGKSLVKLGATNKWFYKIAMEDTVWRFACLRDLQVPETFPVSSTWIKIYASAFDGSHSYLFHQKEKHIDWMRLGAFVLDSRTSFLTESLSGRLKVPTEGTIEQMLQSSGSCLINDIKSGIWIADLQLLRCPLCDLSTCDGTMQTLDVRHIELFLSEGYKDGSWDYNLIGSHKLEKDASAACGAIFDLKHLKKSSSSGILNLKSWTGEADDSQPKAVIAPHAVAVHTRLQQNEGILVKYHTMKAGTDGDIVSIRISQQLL

[5] = target: T5, F-box domain of RMF1 (yeast two-hybrid fusion) (Arabidopsis thaliana) (UniProt Q9M365); test: two-hybrid; yeast two-hybrid, AD fusions in pGADT7 and BD fusions in pGBKT7, mated strains, selection on SD/-His-Ade-Trp-Leu with X-alpha-Gal
T5 sequence: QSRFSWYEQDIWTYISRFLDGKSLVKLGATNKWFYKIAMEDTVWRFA

[6] = target: T6, F-box domain of RMF2 (yeast two-hybrid fusion) (Arabidopsis thaliana) (UniProt Q9FGB8); test: as above
T6 sequence: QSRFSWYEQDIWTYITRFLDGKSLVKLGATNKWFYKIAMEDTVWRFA

[7] = target: T7, cLUC-RMF1 (Arabidopsis thaliana) (UniProt Q9M365); test: split reporter; split luciferase complementation (SLC) imaging in agro-infiltrated tobacco (N. benthamiana) leaves; nLUC and cLUC fusions; luciferin sprayed after 36-48 h
T7 sequence: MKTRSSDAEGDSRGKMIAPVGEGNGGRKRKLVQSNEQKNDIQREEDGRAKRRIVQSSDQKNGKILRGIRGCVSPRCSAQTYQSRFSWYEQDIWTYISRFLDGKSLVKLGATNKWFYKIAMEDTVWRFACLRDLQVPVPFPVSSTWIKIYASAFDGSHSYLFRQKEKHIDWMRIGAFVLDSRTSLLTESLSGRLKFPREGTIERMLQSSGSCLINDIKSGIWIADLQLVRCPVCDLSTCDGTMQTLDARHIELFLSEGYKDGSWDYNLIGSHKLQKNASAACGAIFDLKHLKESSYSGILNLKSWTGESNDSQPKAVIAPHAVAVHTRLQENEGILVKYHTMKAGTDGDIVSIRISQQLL

[8] = target: T8, cLUC-RMF2 (Arabidopsis thaliana) (UniProt Q9FGB8); test: as above
T8 sequence: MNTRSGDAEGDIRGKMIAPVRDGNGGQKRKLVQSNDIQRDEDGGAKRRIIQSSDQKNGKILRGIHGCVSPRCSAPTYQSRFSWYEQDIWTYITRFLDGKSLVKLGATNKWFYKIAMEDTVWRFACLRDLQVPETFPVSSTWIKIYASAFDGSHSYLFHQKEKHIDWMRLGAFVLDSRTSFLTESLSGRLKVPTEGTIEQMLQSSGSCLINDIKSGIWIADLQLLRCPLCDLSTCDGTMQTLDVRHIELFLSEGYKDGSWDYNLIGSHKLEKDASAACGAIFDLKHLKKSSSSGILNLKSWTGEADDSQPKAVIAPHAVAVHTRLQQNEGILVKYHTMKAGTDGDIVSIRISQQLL

“ASK1 BiFC fusion (from UniProt Q39255 1-160)” was tested, and the binding [1] was “binds” and the binding [2] was “binds”.
In the case of ASK1-MYC (from UniProt Q39255 1-160), the binding [3] is reported as “binds” and the binding [4] is reported as “binds”.
In the case of “ASK1 (yeast two-hybrid fusion) (from UniProt Q39255 1-160)”, the binding [5] is reported as “binds” and the binding [6] is reported as “binds”.
“ASK1 fused to nLUC (from UniProt Q39255 1-160)” was tested, and the binding [7] was “binds” and the binding [8] was “binds”.
